# Hit rate of the full screen: of about 360,000 compounds, about 11,000 (3.1%) were called active. This list was built around the results that the source calls inconclusive (neither active nor inactive); the mix of calls is not that of the screen. Calls come from the whole dose curve; as a rule, active = well fitted inhibition curve with a large enough effect; inconclusive = small, poorly fitted or top-dose-only effect; inactive = no such curve, though single readings can be large or run the other way. Potencies of inconclusive entries are left out as doubtful fits.
# Biological target: Schistosoma mansoni thioredoxin glutathione reductase (TGR) (UniProt Q962Y6)
# Test: qHTS Assay for the Inhibitors of Schistosoma Mansoni Peroxiredoxins; note: nearly all actives have a fitted effect of over 60% in size
# Details: purified TGR, DTNB reduction, TNB absorbance 405 nm; activity change, negative = inhibition: at 114 µM (top of the series) unless noted
# In short: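 TGR 20 nM + NADPH 100 uM (dispensed conc.), cpd preinc 15 min RT; start with NADPH (500 uM addition) then DTNB (15 mM addition). Kinetic TNB absorbance, 405 nm filter. Four-parameter Hill fit across titration.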
# % is set by controls: 0 for no effect and ±100 for the full control effect; potency is the fitted concentration of half-maximal effect; tags give direction and shape of the fitted curve.
SMILES,"activity change, negative = inhibition",Potency
CNC(=O)COc1coc(CN2CCN(Cc3ccccc3)CC2)cc1=O,inactive: -5.1%,–
COc1ccc(CCN2C(=O)CSC2c2ccc(F)cc2)cc1 (stereo not given),inactive: -12.6%,–
C[C@@H](O)C(C(=O)N1CCNCC1)n1cc([C@@H](N)CCCCN)nn1 (stereo not given in full),–,"inconclusive [inhibitor, partial curve]"
Cc1cc(C)c(S(=O)(=O)NCC(c2cccs2)S(=O)(=O)c2ccccc2)c(C)c1 (stereo not given),–,active: 0.316 µM
O=C(CNC(=O)c1ccccc1)N/N=C/c1ccc([N+](=O)[O-])o1,–,"inconclusive [inhibitor, partial curve]"
Cc1ccccc1-c1nc(CS(=O)(=O)CC(=O)NCCCN2CCOCC2)c(C)o1,–,"inconclusive [inhibitor, partial curve]"
Cc1ccc(CNC(=O)c2ccc(N3CCC4(CC3)CC(c3cccc(Br)c3)=NO4)c(NC(=O)c3cccc(C)c3)c2)cc1,inactive: -6.18%,–
COc1cc(NC(=O)C2=COCCO2)c(OC)cc1Cl,inactive: 3.01%,–
CCOC(=O)c1sc2nc(-c3ccco3)c3c(c2c1N)CC(C)(C)OC3,–,active: 0.891 µM
Cc1cc(O)c(C=Nc2ccc(Cl)cn2)c(=O)o1,–,"inconclusive [inhibitor, full curve]"
CC12CN3CC(c4ccccc4)(CN(C1)C31CCCCC1)C2=O,inactive: 5.89%,–
O=C(N/C(=C/c1ccc(F)cc1)C(=O)N1CCCC1)c1ccccc1,–,"inconclusive [inhibitor, single point]"
CCCCNC(=S)Nc1ccc(-c2nc3ccc(C)cc3s2)cc1,inactive: -1.31%,–
COc1cc(NC(=O)CN2C(=O)C(C)N(c3ccc(C)cc3)C2=O)cc(OC)c1 (stereo not given),inactive: -0.446%,–
O=C(/C=C/c1ccc(-c2ccccc2[N+](=O)[O-])o1)c1ccco1,–,active: 35.5 µM
O=C(N/N=C/c1ccc(Cl)cc1)c1nc2ccc([N+](=O)[O-])cc2c(=O)[nH]1,–,"inconclusive [inhibitor, partial curve]"
O=C1NC(=S)N(c2ccc(Cl)cc2)C(=O)/C1=C/N1CCN(C(=O)c2ccco2)CC1,–,"inconclusive [inhibitor, partial curve]"
C/C(=N\Nc1ccccn1)c1ccc2c(c1)OCO2,inactive: -2.4%,–
COc1cccc(-c2sc3ccc(OC)cc3c2C#CC(C)(C)O)c1,–,"inconclusive [inhibitor, partial curve]"
Cc1ccc(NC(=O)c2cc3ccccc3oc2=N)cc1,inactive: 8.74%,–
Cc1ccc(NC(=O)N2CCCc3ccccc32)cc1,inactive: 1.02%,–
Cn1cccc1CC(=O)N/N=C/c1ccc(Cl)c([N+](=O)[O-])c1,–,"inconclusive [inhibitor, partial curve]"
Cc1ccc(-c2nc(CS(=O)CC(=O)N3CCN(c4ccc(Cl)cc4)CC3)c(C)o2)cc1 (stereo not given),–,"inconclusive [inhibitor, partial curve]"
CCOC(=O)c1ccc(NC(=S)NC(=O)c2cncc(Br)c2)cc1,–,"inconclusive [inhibitor, single point]"

SMILES,"activity change, negative = inhibition",Potency
CCCCc1[nH]c(=O)c(C#N)c2c1CSC(C)(C)C2,–,active: 31.6 µM
CCC1CCCCN1C(=O)CSc1nc2c([nH]c3ccccc32)c(=O)n1-c1ccc(OC)cc1 (stereo not given),inactive: -4.81%,–
CC(=O)n1c(Cl)c(NC(=O)CCl)c2ccccc21,–,"inconclusive [inhibitor, single point]"
CCCOc1ccc(N2C(=O)CC(N3CCN(c4ccccc4OC)CC3)C2=O)cc1 (stereo not given),–,active: 50.1 µM
O=C(c1ccc(S(=O)(=O)Cc2cc(F)ccc2F)c([N+](=O)[O-])c1)N1CCCC1,–,"inconclusive [inhibitor, full curve, poor fit]"
Cn1c(SCc2cccc(C(F)(F)F)c2)nnc1-c1ccco1,–,"inconclusive [inhibitor, partial curve]"
Cc1ccc2cc(C#N)c(NCCCNC(=O)C3CCCO3)nc2c1 (stereo not given),–,"inconclusive [inhibitor, partial curve]"
COc1ccc(-c2nc(C#N)c(N3CCC(C(N)=O)CC3)o2)cc1OC,–,"inconclusive [inhibitor, full curve, poor fit]"
Cc1ccc2nc(N3CCN(c4ccccc4)CC3)c(C=O)c(=O)n2c1,–,active: 44.7 µM
O=C(CNc1ccc2c(c1)OCO2)N/N=C\c1ccccc1Cl,–,"inconclusive [inhibitor, partial curve]"
CCOC(=O)/C=C(C)\C=C\c1c[nH]c2ccccc12,–,"inconclusive [inhibitor, partial curve]"
Cc1cc(S(=O)(=O)Nc2ccc(C(=O)NCC(c3ccco3)N3CCCC3)cc2)ccc1F (stereo not given),inactive: -8.98%,–
c1ccc(-c2nn3c(-c4ccco4)nnc3s2)nc1,–,active: 25.1 µM
COc1ccc(C(=O)Nc2ccc(Cl)cc2C(=O)NCCO)cc1,–,"inconclusive [inhibitor, full curve, poor fit]"
CN1C(=O)C(Cc2ccc3c(c2)OCO3)C(=O)N(C)C1=O,–,"inconclusive [inhibitor, partial curve]"
COc1ccc(S(=O)(=O)Nc2cc(S(=O)(=O)c3ccccc3)c(O)c(C)c2C)cc1,–,"inconclusive [inhibitor, partial curve]"
CCc1cc2c(=O)n(Cc3ccco3)c(SCC(=O)NC3CCS(=O)(=O)C3)nc2s1 (stereo not given),–,active: 15.8 µM
CC(CN1c2ccccc2Sc2ccccc21)N(C)C (stereo not given),inactive: -13.2%,–
COc1ccc(OC)c(Cc2nnc(CCC(=O)N3CCCCC3c3nccs3)o2)c1 (stereo not given),–,"inconclusive [inhibitor, full curve, poor fit]"
Cc1ccc(/C=C/C(=O)OCC(=O)NCc2ccccc2)o1,–,"inconclusive [inhibitor, partial curve]"
CCOC(=O)c1ccccc1NC(=O)CSc1nccn1Cc1ccco1,–,"inconclusive [inhibitor, single point]"
Cc1cc(C)n(CCC(=O)N2CCN(S(=O)(=O)c3ccc(C)c(C)c3)CC2)n1,–,"inconclusive [inhibitor, partial curve]"
COc1ccc(Cn2c(=O)c3cccnc3n(Cc3cccc(F)c3)c2=O)cc1,inactive: -0.256%,–
CCOC(=O)c1c(C)oc2ncnc(Nc3ccc(OC)c(OC)c3)c12,inactive: 8.83%,–

SMILES,"activity change, negative = inhibition",Potency
S=c1[nH]nc(-c2cc(-c3ccccn3)nc3ccccc23)o1,–,"inconclusive [inhibitor, partial curve]"
Cc1ccccc1Nc1c([N+](=O)[O-])cncc1[N+](=O)[O-],–,"inconclusive [inhibitor, partial curve]"
COc1cc(Cl)ccc1OCc1cc(C(=O)N2C[C@@H]3CCC[C@H]2C3)no1,–,"inconclusive [inhibitor, full curve, poor fit]"
Oc1ccccc1C1=Nc2ncnn2C(c2ccc(F)cc2)C1 (stereo not given),–,active: 14.1 µM
O=C(N/C(=C/C=C\c1ccccc1)C(=O)N1CCOCC1)c1ccc(Br)cc1,–,"inconclusive [inhibitor, partial curve]"
Cc1ccc(NC(=O)c2ccc3ncsc3c2)cc1S(=O)(=O)N(C)C,inactive: 6%,–
O=c1[nH]c(=O)n(Cc2ccccc2)c(O)c1C=NCCN1CCOCC1,–,"inconclusive [inhibitor, partial curve]"
O=c1oc2ccc3ccccc3c2cc1-c1nnc(Nc2ccc(F)cc2)s1,inactive: -0.0579%,–
CC(C)[C@@]1(NC(=O)[C@@H]2C=C3c4cccc5[nH]cc(c45)C[C@H]3N(C)C2)O[C@@]2(O)[C@@H]3CCCN3C(=O)[C@H](Cc3ccccc3)N2C1=O,–,active: 8.91 µM
O=C1S/C(=C/c2ccc(N3CCOCC3)o2)C(=O)N1Cc1ccc(F)cc1,–,active: 1 µM
COc1cccc(CNc2cc(C)nc3nc(-c4ccc(C)cc4)nn23)c1,–,"inconclusive [inhibitor, partial curve]"
O=C(O)Cc1ccc(NCc2ccccc2Cl)cc1,–,"inconclusive [inhibitor, partial curve]"
Cc1ccc(C(=O)C2=C(O)C(=O)N(Cc3cccnc3)C2c2ccc(Cl)c(Cl)c2)o1 (stereo not given),–,"inconclusive [inhibitor, partial curve]"
CCc1ccc(NC(=O)COC(=O)C2(c3ccc(Cl)cc3)CCCC2)cc1,inactive: -6.82%,–
Cc1cc(C)n(-c2ccc(NC(=O)C3CCCCN3C(=O)c3cc(C)oc3C)cc2)n1 (stereo not given),–,"inconclusive [inhibitor, partial curve]"
O=C(CCl)N1CCN(CC(=O)N2CCCC2)CC1,–,"inconclusive [inhibitor, full curve]"
COC(=O)c1ccc(CN2[C@H](C(=O)OC)C[C@@]3(O)[C@@H](O)[C@@H](O)[C@@H](O)C[C@@H]23)cc1,–,"inconclusive [inhibitor, partial curve]"
Nc1c(N2CCCC2)cc(Cl)c2nonc12,–,active: 56.2 µM
[NH-]c1ncnc2c1N=C[N+]2=CC=CCO,–,"inconclusive [inhibitor, partial curve]"
Cc1cccc([C@@H]2[C@@H]3C(=O)N(Cc4ccccc4)C(=O)[C@@H]3[C@]3(Cc4ccccc4)C(=O)N(c4cccc(Cl)c4)C(=O)N23)c1,inactive: 7.02%,–
Cc1c(Cl)cccc1NS(=O)(=O)c1ccc2c(c1)C1C=CCC1C(c1ccc(C(=O)O)cc1)N2 (stereo not given),–,active: 20 µM
COc1ccc([C@H]2[C@H](C(=O)OC(C)(C)C)N3N=Cc4ccccc4C3C23C(=O)c2ccccc2C3=O)cc1OC (stereo not given in full),–,"inconclusive [inhibitor, partial curve]"

# — PubChem BioAssay AID485364 (National Center for Advancing Translational Sciences (NCATS), 2010)
